This is one part of the list. No stated cut-off is given here; in the data, active = 3.2 or more and inactive = the rest. Only a few entries rise above the background.
Assays:
Experiment in all cases: enrichment score (SH2-bound / input frequency) (ratio); bacterial display of known human phosphotyrosine sites (pTyr-Var adds point mutants) read by sequencing; higher = stronger binding; tyrosines were phosphorylated by kinases first
Details in all cases: peptide library: pTyr-Var
[1] = target: SHP2 C-SH2 domain E139D
[2] = target: SHP2 C-SH2 domain wild-type
[3] = target: SHP2 N-SH2 domain L43F
[4] = target: SHP2 N-SH2 domain T42A
[5] = target: SHP2 N-SH2 domain T52S
[6] = target: SHP2 N-SH2 domain wild-type

Measured: enrichment score
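Further: displayed peptides selected on beads carrying the immobilized SH2 domain, with library peptides lacking any tyrosine serving as negative controls.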

B1: ITGA3_Y237_S235P (peptide)
chain: WDLPEYSYKDP
inactive: [1] 1.28 | [2] 1.18 | [3] 1.6 | [4] 1.07 | [5] 1.36 | [6] 1.06

B2: IPO4_Y518 (peptide)
chain: ASLLPYFPAIM
inactive: [1] 1.54 | [2] 1.2 | [3] 1.44 | [4] 1.27 | [5] 1.48 | [6] 1.43

B3: ITGA2B_Y265_YF (peptide)
chain: EFFDGYWGFSV
inactive: [1] 0.951 | [2] 0.967 | [3] 0.732 | [4] 1.09 | [5] 0.728 | [6] 0.97

B4: INSR_Y87_L89P (peptide)
chain: IMITDYLPLFR
inactive: [1] 1.63 | [2] 1.49 | [3] 1.53 | [4] 2.04 | [5] 1.44 | [6] 1.52

B5: ITGAE_Y551_R552H (peptide)
chain: GRVYVYHLSEQ
inactive: [1] 1.55 | [2] 2.56 | [3] 1.73 | [4] 1.23 | [5] 1.94 | [6] 1.33

B6: IRS1_Y612 (peptide)
chain: HTDDGYMPMSP
inactive: [1] 0.691 | [2] 0.456 | [3] 0.544 | [4] 0.506 | [5] 0.614 | [6] 0.542

B7: ITGA2B_Y265_G267E_YF (peptide)
chain: EFFDGYWEFSV
inactive: [1] 0.568 | [2] 1.03 | [3] 1.04 | [4] 0.788 | [5] 0.775 | [6] 1.24

B8: ITGA2B_Y845 (peptide)
chain: PSDLLYILDIQ
inactive: [1] 1.22 | [2] 1.03 | [3] 0.924 | [4] 0.645 | [5] 1.5 | [6] 0.86

B9: JPH2_Y141 (peptide)
chain: GMRHGYGVRQS
inactive: [1] 2.01 | [2] 1.31 | [3] 1.83 | [4] 1.36 | [5] 1.63 | [6] 1.53

B10: ITGB2_Y131 (peptide)
chain: PIDLYYLMDLS
inactive: [1] 1.55 | [2] 1.88 | [3] 1.97 | [4] 2.03 | [5] 1.66 | [6] 2.21

B11: ITGAE_Y549 (peptide)
chain: EEGRVYVYRLS
inactive: [1] 0.76 | [2] 1.35 | [3] 0.77 | [4] 0.688 | [5] 0.954 | [6] 0.79

B12: ITGB2_Y125_D128N (peptide)
chain: RRAKGYPINLY
inactive: [1] 0.246 | [2] 0.349 | [3] 0.213 | [4] 0.266 | [5] 0.276 | [6] 0.296

B13: JAGN1_Y42_H44Y (peptide)
chain: IKKLIYVYLVI
inactive: [1] 0.621 | [2] 0.733 | [3] 0.505 | [4] 0.561 | [5] 0.832 | [6] 0.753

B14: ITK_Y198_R193Q (peptide)
chain: QRNEEYCLLDS
inactive: [1] 0.749 | [2] 0.805 | [3] 0.695 | [4] 0.739 | [5] 0.595 | [6] 0.873

B15: JAK2_Y931_YF (peptide)
chain: KLIMEYLPFGS
inactive: [1] 1.27 | [2] 1.29 | [3] 1.2 | [4] 1.04 | [5] 1.19 | [6] 1.2

B16: IRF3_Y107_Y107F (peptide)
chain: DPHKIFEFVNS
inactive: [1] 1.09 | [2] 0.736 | [3] 0.893 | [4] 0.807 | [5] 0.957 | [6] 1.09

B17: INTS13_Y67 (peptide)
chain: YCRIMYDIFPF
inactive: [1] 1.73 | [2] 2.12 | [3] 1.56 | [4] 1.75 | [5] 1.6 | [6] 1.66

B18: ITGA2B_Y384_G380D (peptide)
chain: TDTQLYGRFGS
inactive: [1] 0.682 | [2] 0.691 | [3] 0.678 | [4] 0.738 | [5] 0.602 | [6] 0.817

Source: the supplement of paper PMC10369915
